# Assay results as given in the BET-seq Pho4 binding data (Le et al. 2018).
# The list shows a part of the results. Values were computed here from the reads of four pooled replicates and scatter widely.
# Target: T1, Pho4 (S. cerevisiae) (UniProt P07270)
# T1 sequence: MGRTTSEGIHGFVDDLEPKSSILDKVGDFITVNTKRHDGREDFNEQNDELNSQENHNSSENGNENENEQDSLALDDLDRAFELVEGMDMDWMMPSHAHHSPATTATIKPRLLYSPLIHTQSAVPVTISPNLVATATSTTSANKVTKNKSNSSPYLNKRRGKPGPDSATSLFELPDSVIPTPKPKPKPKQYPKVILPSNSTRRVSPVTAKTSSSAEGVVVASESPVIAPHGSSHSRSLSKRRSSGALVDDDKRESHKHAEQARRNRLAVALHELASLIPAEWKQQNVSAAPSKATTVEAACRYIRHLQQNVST
# Assay: relative binding free energy (BET-seq); higher = weaker binding
# Settings: reference: library average
row,Sequence,relative binding free energy
1,GATAGCACGTGAGTGG,0.19 kcal/mol
2,TTGAGCACGTGCAAGT,-0.03 kcal/mol
3,ATCGACACGTGTTGTA,0.1 kcal/mol
4,GCCTTCACGTGGGTTT,0.32 kcal/mol
5,ATTAACACGTGTAGCT,0.1 kcal/mol
6,GCTGTCACGTGAGAGA,0.52 kcal/mol
7,GGAATCACGTGTTGGG,0.23 kcal/mol
8,AATTACACGTGAGTTG,0.39 kcal/mol
9,GGGGTCACGTGATATT,0.34 kcal/mol
10,TGATCCACGTGAGGTT,0.18 kcal/mol
11,ACAGGCACGTGTTTTG,-0.09 kcal/mol
12,GCCGGCACGTGTTGGT,-0.12 kcal/mol
13,TGGAGCACGTGGACTT,0.05 kcal/mol
14,GTTTACACGTGGCCGG,0.18 kcal/mol
15,CTGGTCACGTGGCGAG,-0.01 kcal/mol
16,ATTTTCACGTGTTAAT,0.31 kcal/mol
17,GGTGACACGTGGAGTC,0.23 kcal/mol
18,GATATCACGTGTTATG,0.21 kcal/mol
19,TCTGGCACGTGTATTG,-0.15 kcal/mol
20,ACTGTCACGTGGTTAA,0.13 kcal/mol
21,TTATTCACGTGGGTCC,0.2 kcal/mol
22,GGTTGCACGTGTCAGA,0.06 kcal/mol
23,TAATTCACGTGGGCGA,0.1 kcal/mol

row,Sequence,relative binding free energy
1,GGTTGCACGTGGCTGA,0.01 kcal/mol
2,TAAAGCACGTGATGGT,0.06 kcal/mol
3,AGGGTCACGTGTTCTG,0.1 kcal/mol
4,TGATGCACGTGAGTGA,0.21 kcal/mol
5,TCGGTCACGTGGGTGC,0.03 kcal/mol
6,GGTGACACGTGCGGTG,0.04 kcal/mol
7,GTTGGCACGTGGTCGT,-0.04 kcal/mol
8,CAGTGCACGTGATGTT,-0.04 kcal/mol
9,TCAAGCACGTGTAGGG,-0.01 kcal/mol
10,TTGATCACGTGTTACG,0.29 kcal/mol
11,GAGGCCACGTGGGGCG,-0.22 kcal/mol
12,TGGGACACGTGGGCGG,-0.09 kcal/mol
13,CAGTTCACGTGGTTAG,0.11 kcal/mol
14,GATGCCACGTGGTGTT,-0.17 kcal/mol
15,AATGGCACGTGGCGTC,0.05 kcal/mol
16,TGTCGCACGTGGGAAG,-0.01 kcal/mol
17,TAAAGCACGTGGAGTA,-0.02 kcal/mol
18,TATGCCACGTGTTGAG,0.06 kcal/mol
19,CGGGCCACGTGTGGGG,0.01 kcal/mol
20,GTCATCACGTGGGGTT,0.08 kcal/mol
21,AGATGCACGTGTGGCT,0.07 kcal/mol
22,TTCGCCACGTGGGGTT,-0.18 kcal/mol
23,TGCGGCACGTGGGTTC,-0.19 kcal/mol

row,Sequence,relative binding free energy
1,ATTATCACGTGATGGG,0.32 kcal/mol
2,CTTTGCACGTGTTCTT,-0.13 kcal/mol
3,CGACACACGTGGGTGG,-0.03 kcal/mol
4,GCAATCACGTGGTGTG,0.14 kcal/mol
5,TGAAACACGTGGGGTT,-0.02 kcal/mol
6,GTAAACACGTGTCGTT,0.15 kcal/mol
7,TATAACACGTGAGGCT,0.28 kcal/mol
8,GAGTACACGTGGGGCT,0.06 kcal/mol
9,TTAGACACGTGAGAGT,0.09 kcal/mol
10,ATGTGCACGTGGGTAG,-0.14 kcal/mol
11,TTAAGCACGTGAGCGG,0.21 kcal/mol
12,AAAATCACGTGTTGTG,0 kcal/mol
13,TGCTACACGTGAGCGG,0.44 kcal/mol
14,TTTGTCACGTGTTGGA,0.25 kcal/mol
15,AGGGCCACGTGGAGTA,-0.24 kcal/mol
16,GGTGACACGTGGATGA,0.13 kcal/mol
17,GGGGTCACGTGGAGGG,0.14 kcal/mol
18,GTTTGCACGTGAGCAG,0.3 kcal/mol
19,TGTCACACGTGGAGTG,-0.06 kcal/mol
20,TTTGGCACGTGTGCAC,-0.06 kcal/mol
21,GTGTGCACGTGTCATT,0.04 kcal/mol
22,TCTTTCACGTGATGAT,0.33 kcal/mol
23,ATTTTCACGTGTCTCT,0.34 kcal/mol

row,Sequence,relative binding free energy
1,GATTTCACGTGGTGAA,0.14 kcal/mol
2,ATTGTCACGTGTAATA,0.2 kcal/mol
3,GTGTTCACGTGTGAGC,0.35 kcal/mol
4,CTTTGCACGTGTTGTG,-0.07 kcal/mol
5,GATTGCACGTGCGAGT,0.04 kcal/mol
6,GTGATCACGTGCAGGT,0.1 kcal/mol
7,GGGGTCACGTGGTCGT,0.03 kcal/mol
8,TAGAGCACGTGTCAGG,-0.16 kcal/mol
9,AACTGCACGTGGCGGG,-0.04 kcal/mol
10,TGCGACACGTGTTTAT,0.01 kcal/mol
11,ATGGGCACGTGAGGTT,0.07 kcal/mol
12,GTCGGCACGTGTAGGG,-0.06 kcal/mol
13,GATATCACGTGCGTTT,0.35 kcal/mol
14,TTTGGCACGTGTGTAG,-0.12 kcal/mol
15,TGATGCACGTGGTTGT,0.01 kcal/mol
16,GCCCGCACGTGGGGTG,-0.29 kcal/mol
17,ATTAACACGTGTTCTT,0.04 kcal/mol
18,GTTGTCACGTGTTGTA,0.05 kcal/mol
19,AGCAGCACGTGTAGGT,-0.06 kcal/mol
20,CCGGTCACGTGTTGTG,-0.04 kcal/mol
21,TGTCTCACGTGAGCTT,0.32 kcal/mol
22,CCGGGCACGTGGGGCG,-0.28 kcal/mol
23,TTGAACACGTGGTGGA,0.04 kcal/mol

row,Sequence,relative binding free energy
1,TTCGTCACGTGGGCGC,0.06 kcal/mol
2,TATGACACGTGGGGAT,-0.03 kcal/mol
3,ATTGTCACGTGCCTGT,-0.13 kcal/mol
4,TTAGGCACGTGGGCTT,-0.28 kcal/mol
5,AGTTTCACGTGGGGTC,0.05 kcal/mol
6,GTGGACACGTGGCGGG,0.01 kcal/mol
7,CGTTGCACGTGGTATA,-0.15 kcal/mol
8,TGATACACGTGTGGGG,0.12 kcal/mol
9,GGAGTCACGTGGGGCG,0.03 kcal/mol
10,GTGCGCACGTGGGAGG,-0.15 kcal/mol
11,ATATTCACGTGCGGTG,0.27 kcal/mol
12,TTCGTCACGTGTTGAA,0.02 kcal/mol
13,TGGAACACGTGTAGTC,0.15 kcal/mol
14,CGAAGCACGTGGGAGT,-0.17 kcal/mol
15,TTAGGCACGTGGTTAC,-0.18 kcal/mol
16,TGGATCACGTGTGAAA,0.37 kcal/mol
17,TTTGTCACGTGTACGG,0.06 kcal/mol
18,TGCATCACGTGTGTAT,0.28 kcal/mol
19,ATTGTCACGTGGCGCG,0.16 kcal/mol
20,CTTTGCACGTGGTAGT,-0.09 kcal/mol
21,CGGAGCACGTGGACGG,-0.01 kcal/mol
22,TCAAGCACGTGTGTTA,0.02 kcal/mol
23,TTTTGCACGTGCCGGT,-0.18 kcal/mol
